From PubChem BioAssay AID1240 (Sanford-Burnham Center for Chemical Genomics, 2008)
Out of some 50,000 compounds screened, about 800 (1.6%) showed an effect of 50% or more. The list shows a part of the results.

Biological target: Bcl-2-like protein 10 (Homo sapiens) (UniProt Q9HD36)
Assay: Phenotype converters, Bcl-B/TR3 peptide binding displacement, primary biochemical FP (AID 1240);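 further: 0% = Bcl-B with tracer peptide and DMSO and 100% = tracer peptide lacking Bcl-B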
Settings: GST-Bcl-B / FITC-TR3 peptide fluorescence polarization; stronger effect = higher value; compound at 3.75 mg/L

UniProt Q9HD36, sequence (Q9HD36 whole entry, looked up): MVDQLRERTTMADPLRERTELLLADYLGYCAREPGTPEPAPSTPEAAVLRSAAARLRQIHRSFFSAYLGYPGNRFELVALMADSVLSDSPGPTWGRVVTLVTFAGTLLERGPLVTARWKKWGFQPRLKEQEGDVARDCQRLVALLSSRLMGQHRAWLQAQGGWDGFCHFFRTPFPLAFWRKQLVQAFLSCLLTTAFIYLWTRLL

Going from C=CCN(CC=C)S(=O)(=O)c1ccc(NC(C)=O)cc1 to C=CCNC(=O)C(=O)Nc1ccc(OC)c(Cl)c1, the displacement rises from -11.7% to 11.2%.

Going from Cc1ccc(C(C)C)c(OC(=O)c2ccccc2[N+](=O)[O-])c1 to COc1ccc(NC(=O)COc2ccc3ccccc3c2)c([N+](=O)[O-])c1, the displacement rises from 3% to 6.1%.

Compared with O=C(Nc1ccccc1F)c1ccco1, Cc1cc(NC(=O)c2ccc(-c3ccc(Cl)cc3)o2)ccc1NC(=O)c1ccco1 is higher in displacement: -4.4% for the first, 18.6% for the second.

Going from COc1ccc(N2C(=O)CC(Sc3ncccc3C(=O)O)C2=O)cc1 (centres undefined) to COc1ccc(-n2c(SC)nc(O)c(Cc3ccccc3)c2=O)cc1, the displacement falls from 3% to -1.5%.

Going from COc1ccc(C2C3C(=O)N(c4ccccc4Cl)C(=O)C3ON2c2ccccc2)cc1 (centres undefined) to COc1ccc(/C=C2/C=C(c3ccccc3)OC2=O)cc1, the displacement falls from 4.2% to -15.2%.

Compared with COc1ccccc1CN1CCN(Cc2ccc([N+](=O)[O-])cc2)CC1, COc1ccc(CC(=O)O/N=C(\N)c2ccc([N+](=O)[O-])cc2)cc1OC is higher in displacement: -9.5% for the first, 6.1% for the second.

First: Cc1cnn(-c2cc(Oc3ccccc3)ncn2)c1
Second: COc1ccc(O)c(C(=O)CC(=O)c2ccccc2)c1
The displacement of the first is lower: -12.5% for the first, 8.8% for the second.

Going from COc1cc(OC)cc(C(=O)N2CCN(C3CCCCC3)CC2)c1 to COc1ccc(/C=C2\SC(=O)N(CCC(=O)N3CCN(C)CC3)C2=O)cc1, the displacement falls from -2.2% to -15.3%.

First: O=[N+]([O-])c1ccc2oc(-c3ccccc3)nc2c1
Second: O=C1CCCCC1Oc1ccc2c(-c3ccccc3)cc(=O)oc2c1 (centres undefined)
The displacement of the first is higher: 5% for the first, -9.6% for the second.

First: COc1ccc(CSc2nnc3c(n2)[nH]c2ccccc23)cc1
Second: O=S(=O)(Nc1cccc2ccccc12)c1cc(Cl)ccc1Cl
The displacement of the first is lower: 0.4% for the first, 9.5% for the second.

Going from COc1ccc(N(CC(=O)Nc2ccccc2Br)S(=O)(=O)c2ccc(C)cc2)c(OC)c1 to COc1ccc(N(CC(=O)Nc2cccc(C)c2)S(=O)(=O)c2ccc(C)cc2)c(OC)c1, the displacement falls from 9.9% to 3.6%.

First: CCN1C(=O)/C(=C\c2cccc(OCCOc3cccc(OC)c3)c2)SC1=S
Second: COc1cc(/C=C2\SC(=Nc3ccccc3)N(c3ccccc3)C2=O)cc(Br)c1OC
The displacement of the first is lower: 3.4% for the first, 4.4% for the second.

First: Clc1cccc(CSc2nnc(-c3ccc(Cl)cc3Cl)o2)c1
Second: O=C1Oc2ccccc2C(=O)/C1=C/c1cccc2ccc(O)cc12
The displacement of the first is higher: 8.8% for the first, 1.8% for the second.

First: O=C(c1cc2n(n1)C(C(F)(F)F)CC(c1ccccc1)N2)N1CCCc2ccccc21 (centres undefined)
Second: O=C1CN(C(=O)OCc2ccccc2)C(c2ccccc2)c2cc(Br)ccc2N1 (centres undefined)
The displacement of the first is higher: 1% for the first, -1.1% for the second.

Compared with COc1ccc(C2NC(c3ccc(OC)c(OC)c3)C(C)C(=O)C2C)cc1OC (centres undefined), Cc1ccccc1-n1c(O)c(C=NCc2ccccc2F)c(=O)[nH]c1=O is higher in displacement: -4% for the first, 1% for the second.

First: Cc1c(NS(=O)(=O)c2ccccc2)cccc1-c1nc2ncccc2o1
Second: O=C1C=CC(=NS(=O)(=O)c2ccccc2)c2ccccc21
The displacement of the first is lower: -0.4% for the first, 21.6% for the second.

First: CC(=O)C1=C(O)C(=O)N(c2nc3ccccc3s2)C1c1cccc(F)c1 (centres undefined)
Second: O=C1NC(=S)N(c2ccccc2)C(=O)/C1=C/c1ccc(Br)cc1
The displacement of the first is lower: -3.9% for the first, 9.6% for the second.

Going from O=C(Nc1nc(-c2ccc(F)cc2)cs1)c1ccc(S(=O)(=O)N2CCCCCC2)cc1 to CC(=O)Oc1ccc(C(=O)Nc2ccc(C(=O)O)cc2)cc1, the displacement falls from 129% to -0.3%.

First: O=C1CCCC2=C1C(c1ccc([N+](=O)[O-])cc1)Nc1ccc(C(=O)c3ccccc3)cc1N2 (centres undefined)
Second: Cn1cc(/C=C/c2nc3ccccc3c(=O)n2-c2ccc([N+](=O)[O-])cc2)c2ccccc21
The displacement of the first is lower: 4.6% for the first, 5.5% for the second.

Compared with CCCN(CCC)c1ccc(/C=N/NC(=O)C(O)c2ccccc2)cc1 (centres undefined), Cc1c(NC(=O)/C=C/c2ccc(Br)cc2)c(=O)n(-c2ccccc2)n1C is lower in displacement: 12.4% for the first, -1.6% for the second.

First: O=C(COc1ccc(Br)cc1)Nc1ccccc1-c1ccccc1
Second: CCC(Oc1ccccc1)C(=O)Nc1ccc(S(=O)(=O)Nc2cnc3ccccc3n2)cc1 (centres undefined)
The displacement of the first is higher: 5.9% for the first, -6.9% for the second.

Compared with Cc1ccc(-n2c(C)cc(/C=N/NC(=O)c3ccncc3)c2C)cc1, O=[N+]([O-])c1ccc2c(c1)S(=O)(=O)N=C2Nc1ccc(Br)cc1 is higher in displacement: -24% for the first, 14.7% for the second.

First: Cc1c(OCC(=O)c2ccccc2)ccc2c3c(c(=O)oc12)CCCC3
Second: O=C(NCC1CCCO1)c1ccc(C2SCC(=O)N2Cc2ccccc2)cc1 (centres undefined)
The displacement of the first is higher: -7.9% for the first, -12.3% for the second.

First: CCOc1cc(OCC)cc(C(=O)Nc2ccccn2)c1
Second: CCOc1ccc2c(c1)C(C)CC(C)(C)N2C(=O)Nc1ccccc1 (centres undefined)
The displacement of the first is lower: -0.7% for the first, 2.4% for the second.

Going from COc1ccc(/C=N/c2sc(C)c(C)c2C#N)cc1 to COc1ccc(/C(=N/O)C(C)(C)NO)cc1, the displacement rises from -10.4% to 12.8%.

Going from CC(C)NC(=O)COc1ccc(C=C2C(=O)NC(=O)NC2=O)cc1 to C/C=C/C(=O)N1c2ccc(OC)cc2-c2c(ssc2=S)C1(C)C, the displacement rises from 1.8% to 3.1%.

Going from Nc1c(Cl)cc(N2C(=O)C=CC2=O)cc1Cl to CCOC(=O)c1c(NC(=O)c2ccccc2F)sc2c1CCCCCC2, the displacement falls from 10.9% to -7.8%.
